Experimental data from the supplement of paper PMC12423691.
This is one part of the list. Binding of human transcription factors and regulators to the viral nucleoprotein by AlphaScreen, crude cell-free proteins, amounts not normalised, one pass. Fold of the Venus control; higher = more signal. No active / inactive call. Single-pass screen; sequences are the whole Swiss-Prot entries looked up by name.

B1: TRAF1, Q13077 (protein)
chain: MASSSGSSPRPAPDENEFPFGCPPTVCQDPKEPRALCCAGCLSENPRNGEDQICPKCRGEDLQSISPGSRLRTQEKAHPEVAEAGIGCPFAGVGCSFKGSPQSVQEHEVTSQTSHLNLLLGFMKQWKARLGCGLESGPMALEQNLSDLQLQAAVEVAGDLEVDCYRAPCSESQEELALQHFMKEKLLAELEGKLRVFENIVAVLNKEVEASHLALATSIHQSQLDRERILSLEQRVVELQQTLAQKDQALGKLEQSLRLMEEASFDGTFLWKITNVTRRCHESACGRTVSLFSPAFYTAKYGYKLCLRLYLNGDGTGKRTHLSLFIVIMRGEYDALLPWPFRNKVTFMLLDQNNREHAIDAFRPDLSSASFQRPQSETNVASGCPLFFPLSKLQSPKHAYVKDDTMFLKCIVETST
B2: OVOL2, Q9BRP0 (protein)
chain: MPKVFLVKRRSLGVSVRSWDELPDEKRADTYIPVGLGRLLHDPPEDCRSDGGSSSGSGSSSAGEPGGAESSSSPHAPESETPEPGDAEGPDGHLATKQRPVARSKIKFTTGTCSDSVVHSCDLCGKGFRLQRMLNRHLKCHNQVKRHLCTFCGKGFNDTFDLKRHVRTHTGIRPYKCNVCNKAFTQRCSLESHLKKIHGVQQQYAYKQRRDKLYVCEDCGYTGPTQEDLYLHVNSAHPGSSFLKKTSKKLAALLQGKLTSAHQENTSLSEEEERK
B3: TRIM32, Q13049 (protein)
chain: MAAAAASHLNLDALREVLECPICMESFTEEQLRPKLLHCGHTICRQCLEKLLASSINGVRCPFCSKITRITSLTQLTDNLTVLKIIDTAGLSEAVGLLMCRSCGRRLPRQFCRSCGLVLCEPCREADHQPPGHCTLPVKEAAEERRRDFGEKLTRLRELMGELQRRKAALEGVSKDLQARYKAVLQEYGHEERRVQDELARSRKFFTGSLAEVEKSNSQVVEEQSYLLNIAEVQAVSRCDYFLAKIKQADVALLEETADEEEPELTASLPRELTLQDVELLKVGHVGPLQIGQAVKKPRTVNVEDSWAMEATASAASTSVTFREMDMSPEEVVASPRASPAKQRGPEAASNIQQCLFLKKMGAKGSTPGMFNLPVSLYVTSQGEVLVADRGNYRIQVFTRKGFLKEIRRSPSGIDSFVLSFLGADLPNLTPLSVAMNCQGLIGVTDSYDNSLKVYTLDGHCVACHRSQLSKPWGITALPSGQFVVTDVEGGKLWCFTVDRGSGVVKYSCLCSAVRPKFVTCDAEGTVYFTQGLGLNLENRQNEHHLEGGFSIGSVGPDGQLGRQISHFFSENEDFRCIAGMCVDARGDLIVADSSRKEILHFPKGGGYSVLIREGLTCPVGIALTPKGQLLVLDCWDHCIKIYSYHLRRYSTP
B4: TERF2IP, Q9NYB0 (protein)
chain: MAEAMDLGKDPNGPTHSSTLFVRDDGSSMSFYVRPSPAKRRLSTLILHGGGTVCRVQEPGAVLLAQPGEALAEASGDFISTQYILDCVERNERLELEAYRLGPASAADTGSEAKPGALAEGAAEPEPQRHAGRIAFTDADDVAILTYVKENARSPSSVTGNALWKAMEKSSLTQHSWQSLKDRYLKHLRGQEHKYLLGDAPVSPSSQKLKRKAEEDPEAADSGEPQNKRTPDLPEEEYVKEEIQENEEAVKKMLVEATREFEEVVVDESPPDFEIHITMCDDDPPTPEEDSETQPDEEEEEEEEKVSQPEVGAAIKIIRQLMEKFNLDLSTVTQAFLKNSGELEATSAFLASGQRADGYPIWSRQDDIDLQKDDEDTREALVKKFGAQNVARRIEFRKK
B5: FUBP1, Q96AE4 (protein)
chain: MADYSTVPPPSSGSAGGGGGGGGGGGVNDAFKDALQRARQIAAKIGGDAGTSLNSNDYGYGGQKRPLEDGDQPDAKKVAPQNDSFGTQLPPMHQQQSRSVMTEEYKVPDGMVGFIIGRGGEQISRIQQESGCKIQIAPDSGGLPERSCMLTGTPESVQSAKRLLDQIVEKGRPAPGFHHGDGPGNAVQEIMIPASKAGLVIGKGGETIKQLQERAGVKMVMIQDGPQNTGADKPLRITGDPYKVQQAKEMVLELIRDQGGFREVRNEYGSRIGGNEGIDVPIPRFAVGIVIGRNGEMIKKIQNDAGVRIQFKPDDGTTPERIAQITGPPDRCQHAAEIITDLLRSVQAGNPGGPGPGGRGRGRGQGNWNMGPPGGLQEFNFIVPTGKTGLIIGKGGETIKSISQQSGARIELQRNPPPNADPNMKLFTIRGTPQQIDYARQLIEEKIGGPVNPLGPPVPHGPHGVPGPHGPPGPPGPGTPMGPYNPAPYNPGPPGPAPHGPPAPYAPQGWGNAYPHWQQQAPPDPAKAGTDPNSAAWAAYYAHYYQQQAQPPPAAPAGAPTTTQTNGQGDQQNPAPAGQVDYTKAWEEYYKKMGQAVPAPTGAPPGGQPDYSAAWAEYYRQQAAYYAQTSPQGMPQHPPAPQGQ
B6: DMRTA1, Q5VZB9 (protein)
chain: MERSQCGSRDRGVSGRPHLAPGLVVAAPPPPSPALPVPSGMQVPPAFLRPPSLFLRAAAAAAAAAAATSGSGGCPPAPGLESGVGAVGCGYPRTPKCARCRNHGVVSALKGHKRFCRWRDCACAKCTLIAERQRVMAAQVALRRQQAQEESEARGLQRLLCSGLSWPPGGRASGGGGRAENPQSTGGPAAGAALGLGALRQASGSATPAFEVFQQDYPEEKQEQKESKCESCQNGQEELISKSHQLYLGSSSRSNGVIGKQSIGSSISEYSNKPDSILSPHPGEQSGGEESPRSLSSSDLESGNESEWVKDLTATKASLPTVSSRPRDPLDILTKIFPNYRRSRLEGILRFCKGDVVQAIEQVLNGKEHKPDNRNLANSEELENTAFQRASSFSLAGIGFGTLGNKSAFSPLQTTSASYGGDSSLYGVNPRVGISPLRLAYSSAGRGLSGFMSPYLTPGLVPTLPFRPALDYAFSGMIRDSSYLSSKDSITCGRLYFRPNQDNP
B7: NR2F2, P24468 (protein)
chain: MAMVVSTWRDPQDEVPGSQGSQASQAPPVPGPPPGAPHTPQTPGQGGPASTPAQTAAGGQGGPGGPGSDKQQQQQHIECVVCGDKSSGKHYGQFTCEGCKSFFKRSVRRNLSYTCRANRNCPIDQHHRNQCQYCRLKKCLKVGMRREAVQRGRMPPTQPTHGQFALTNGDPLNCHSYLSGYISLLLRAEPYPTSRFGSQCMQPNNIMGIENICELAARMLFSAVEWARNIPFFPDLQITDQVALLRLTWSELFVLNAAQCSMPLHVAPLLAAAGLHASPMSADRVVAFMDHIRIFQEQVEKLKALHVDSAEYSCLKAIVLFTSDACGLSDVAHVESLQEKSQCALEEYVRSQYPNQPTRFGKLLLRLPSLRTVSSSVIEQLFFVRLVGKTPIETLIRDMLLSGSSFNWPYMAIQ
B8: ZNF334, Q9HCZ1 (protein)
chain: MKMKKFQIPVSFQDLTVNFTQEEWQQLDPAQRLLYRDVMLENYSNLVSVGYHVSKPDVIFKLEQGEEPWIVEEFSNQNYPDIDDALEKNKEIQDKHLTQTVFFSNKTLITERENVFGKTLNLGMNSVPSRKMPYKCNPGGNSLKTNSEVIVAKKSKENRKIPDGYSGFGKHEKSHLGMKKYRYNPMRKASNQNENLILHQNIQILKQPFDYNKCGKTFFKRAILITQKGRQTERKPNECNECRKTFSKRSTLIVHQRIHTGEKPYVCSDCRKTFRVKTSLTRHRRIHTGERPYECSECRKTFIDKSALIVHQKIHGGEKSYECNECGKTFFRKSALAEHFRSHTGEKPYECKECGNAFSKKSYLVVHQRTHRGEKPNECKECGKTFFCQSALTAHQRIHTGEKPYECSECEKTFFCQSALNVHRRSHTGEKPYECSQCGKFLCTKSALIAHQITHRGKKSYECNECGKFFCHKSTLTIHQRTHTGEKHGVFNKCGRISIVKSNCSQCKRMNTKENLYECSEHGHAVSKNSHLIVHQRTIWERPYECNECGRTYCRKSALTHHQRTHTGQRPYECNECGKTFCQKFSFVEHQRTHTGEKPYECNECGKSFCHKSAFRVHRRIHTGEKPYECNQCGKTYRRLWTLTEHQKIHTGEKPYECNKCEKTFRHKSNFLLHQKSHKE
B9: NDN, Q99608 (protein)
chain: MSEQSKDLSDPNFAAEAPNSEVHSSPGVSEGVPPSATLAEPQSPPLGPTAAPQAAPPPQAPNDEGDPKALQQAAEEGRAHQAPSAAQPGPAPPAPAQLVQKAHELMWYVLVKDQKKMIIWFPDMVKDVIGSYKKWCRSILRRTSLILARVFGLHLRLTSLHTMEFALVKALEPEELDRVALSNRMPMTGLLLMILSLIYVKGRGARESAVWNVLRILGLRPWKKHSTFGDVRKLITEEFVQMNYLKYQRVPYVEPPEYEFFWGSRASREITKMQIMEFLARVFKKDPQAWPSRYREALEEARALREANPTAHYPRSSVSED
B10: RHOXF1, Q8NHV9 (protein)
chain: MARSLVHDTVFYCLSVYQVKISPTPQLGAASSAEGHVGQGAPGLMGNMNPEGGVNHENGMNRDGGMIPEGGGGNQEPRQQPQPPPEEPAQAAMEGPQPENMQPRTRRTKFTLLQVEELESVFRHTQYPDVPTRRELAENLGVTEDKVRVWFKNKRARCRRHQRELMLANELRADPDDCVYIVVD
B11: ATF4, P18848 (protein)
chain: MTEMSFLSSEVLVGDLMSPFDQSGLGAEESLGLLDDYLEVAKHFKPHGFSSDKAKAGSSEWLAVDGLVSPSNNSKEDAFSGTDWMLEKMDLKEFDLDALLGIDDLETMPDDLLTTLDDTCDLFAPLVQETNKQPPQTVNPIGHLPESLTKPDQVAPFTFLQPLPLSPGVLSSTPDHSFSLELGSEVDITEGDRKPDYTAYVAMIPQCIKEEDTPSDNDSGICMSPESYLGSPQHSPSTRGSPNRSLPSPGVLCGSARPKPYDPPGEKMVAAKVKGEKLDKKLKKMEQNKTAATRYRQKKRAEQEALTGECKELEKKNEALKERADSLAKEIQYLKDLIEEVRKARGKKRVP
B12: SLC30A9, Q6PML9 (protein)
chain: MLPGLAAAAAHRCSWSSLCRLRLRCRAAACNPSDRQEWQNLVTFGSFSNMVPCSHPYIGTLSQVKLYSTNVQKEGQGSQTLRVEKVPSFETAEGIGTELKAPLKQEPLQVRVKAVLKKREYGSKYTQNNFITGVRAINEFCLKSSDLEQLRKIRRRSPHEDTESFTVYLRSDVEAKSLEVWGSPEALAREKKLRKEAEIEYRERLFRNQKILREYRDFLGNTKPRSRTASVFFKGPGKVVMVAICINGLNCFFKFLAWIYTGSASMFSEAIHSLSDTCNQGLLALGISKSVQTPDPSHPYGFSNMRYISSLISGVGIFMMGAGLSWYHGVMGLLHPQPIESLLWAYCILAGSLVSEGATLLVAVNELRRNARAKGMSFYKYVMESRDPSTNVILLEDTAAVLGVIIAATCMGLTSITGNPLYDSLGSLGVGTLLGMVSAFLIYTNTEALLGRSIQPEQVQRLTELLENDPSVRAIHDVKATDLGLGKVRFKAEVDFDGRVVTRSYLEKQDFDQMLQEIQEVKTPEELETFMLKHGENIIDTLGAEVDRLEKELKKRNPEVRHVDLEIL
B13: OPRD1, P41143 (protein)
chain: MEPAPSAGAELQPPLFANASDAYPSACPSAGANASGPPGARSASSLALAIAITALYSAVCAVGLLGNVLVMFGIVRYTKMKTATNIYIFNLALADALATSTLPFQSAKYLMETWPFGELLCKAVLSIDYYNMFTSIFTLTMMSVDRYIAVCHPVKALDFRTPAKAKLINICIWVLASGVGVPIMVMAVTRPRDGAVVCMLQFPSPSWYWDTVTKICVFLFAFVVPILIITVCYGLMLLRLRSVRLLSGSKEKDRSLRRITRMVLVVVGAFVVCWAPIHIFVIVWTLVDIDRRDPLVVAALHLCIALGYANSSLNPVLYAFLDENFKRCFRQLCRKPCGRPDPSSFSRAREATARERVTACTPSDGPGGGAAA
B14: MBTPS2, O43462 (protein)
chain: MIPVSLVVVVVGGWTVVYLTDLVLKSSVYFKHSYEDWLENNGLSISPFHIRWQTAVFNRAFYSWGRRKARMLYQWFNFGMVFGVIAMFSSFFLLGKTLMQTLAQMMADSPSSYSSSSSSSSSSSSSSSSSSSSSSSLHNEQVLQVVVPGINLPVNQLTYFFTAVLISGVVHEIGHGIAAIREQVRFNGFGIFLFIIYPGAFVDLFTTHLQLISPVQQLRIFCAGIWHNFVLALLGILALVLLPVILLPFYYTGVGVLITEVAEDSPAIGPRGLFVGDLVTHLQDCPVTNVQDWNECLDTIAYEPQIGYCISASTLQQLSFPVRAYKRLDGSTECCNNHSLTDVCFSYRNNFNKRLHTCLPARKAVEATQVCRTNKDCKKSSSSSFCIIPSLETHTRLIKVKHPPQIDMLYVGHPLHLHYTVSITSFIPRFNFLSIDLPVVVETFVKYLISLSGALAIVNAVPCFALDGQWILNSFLDATLTSVIGDNDVKDLIGFFILLGGSVLLAANVTLGLWMVTAR

Each binder was assayed against nucleoprotein N of Crimean-Congo hemorrhagic fever virus (assay: AlphaScreen luminescence signal relative to Venus negative control (fold); higher = stronger binding to CCHFV N).
Procedure: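 AlphaScreen binding of cell-free made, FLAG-GST-tagged human transcription factors and regulators (crude translation products) to biotinylated N protein; signal as fold of the FLAG-GST-Venus control. One pass.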
Work on B1 yielded an AlphaScreen luminescence signal of 1.58. B2 gave an AlphaScreen luminescence signal of 5.58. For B3, the AlphaScreen luminescence signal was 1.95. B4 was tested, and the AlphaScreen luminescence signal was 1.44. B5 gave an AlphaScreen luminescence signal of 1.67. Binder B6 has an AlphaScreen luminescence signal of 2.42. B7 was tested, and the AlphaScreen luminescence signal was 2.51. With B8 the AlphaScreen luminescence signal was 3.44. For B9, the AlphaScreen luminescence signal was 7.72. In the case of B10, the AlphaScreen luminescence signal is reported as 7.21. For B11, the AlphaScreen luminescence signal was 2.56. B12 was tested, and the AlphaScreen luminescence signal was 2.56. Work on B13 yielded an AlphaScreen luminescence signal of 2.74. With B14 the AlphaScreen luminescence signal was 2.84.
